T1: IL-4 receptor alpha on TF-1 cells (human, UniProt P24394 26-825)
T1 sequence: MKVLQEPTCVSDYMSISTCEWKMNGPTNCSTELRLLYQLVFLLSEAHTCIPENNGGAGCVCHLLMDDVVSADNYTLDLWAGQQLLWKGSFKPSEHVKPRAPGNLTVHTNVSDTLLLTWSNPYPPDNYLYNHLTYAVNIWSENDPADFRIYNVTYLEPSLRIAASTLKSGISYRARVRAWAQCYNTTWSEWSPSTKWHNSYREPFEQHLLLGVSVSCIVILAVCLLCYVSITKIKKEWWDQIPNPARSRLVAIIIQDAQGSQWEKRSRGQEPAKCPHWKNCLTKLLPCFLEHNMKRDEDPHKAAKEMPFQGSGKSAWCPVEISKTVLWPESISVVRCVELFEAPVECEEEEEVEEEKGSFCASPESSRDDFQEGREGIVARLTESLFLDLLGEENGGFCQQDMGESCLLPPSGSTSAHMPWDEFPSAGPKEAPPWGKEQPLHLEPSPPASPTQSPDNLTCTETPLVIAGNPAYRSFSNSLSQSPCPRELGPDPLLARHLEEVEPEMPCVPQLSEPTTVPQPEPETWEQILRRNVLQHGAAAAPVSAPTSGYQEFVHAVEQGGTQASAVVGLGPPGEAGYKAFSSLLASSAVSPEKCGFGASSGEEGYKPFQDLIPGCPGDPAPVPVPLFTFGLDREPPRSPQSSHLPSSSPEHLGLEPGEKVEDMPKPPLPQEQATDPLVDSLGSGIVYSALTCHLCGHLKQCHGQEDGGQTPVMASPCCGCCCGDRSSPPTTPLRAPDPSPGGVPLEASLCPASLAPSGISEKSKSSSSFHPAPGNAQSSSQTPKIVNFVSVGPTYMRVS

T2: IL-4 receptor alpha-Fc (R&D Systems) (human, UniProt P24394 26-232)
T2 construct: not shown: Fc part of the bought fusion protein; It was captured by an anti human-Fc antibody
T2 sequence: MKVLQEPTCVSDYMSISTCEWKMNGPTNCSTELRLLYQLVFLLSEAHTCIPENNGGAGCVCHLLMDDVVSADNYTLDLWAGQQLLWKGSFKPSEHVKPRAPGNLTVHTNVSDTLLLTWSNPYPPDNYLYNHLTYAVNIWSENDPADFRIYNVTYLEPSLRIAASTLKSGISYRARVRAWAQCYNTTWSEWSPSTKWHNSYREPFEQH

T3: IL-4 receptor alpha (human, UniProt P24394 26-232, limits assumed)
T3 construct: The target as named in the worded statements; also called interleukin-4 receptor alpha chain
T3 sequence: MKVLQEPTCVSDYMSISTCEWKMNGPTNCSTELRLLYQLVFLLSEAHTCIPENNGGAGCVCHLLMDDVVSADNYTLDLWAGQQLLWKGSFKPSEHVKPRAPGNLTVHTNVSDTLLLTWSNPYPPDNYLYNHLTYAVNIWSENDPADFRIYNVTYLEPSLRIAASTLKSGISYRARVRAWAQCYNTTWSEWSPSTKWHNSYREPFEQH

B1: S276.2 K04 (designed binder)
chain: ASDEEIQDVSGTWYLKAMTVDPRCPRAYYSSVTPMTLTTLEGGNLEAKFTAQRSGRWQKYKLVLEKTDEPGKYTASGGRHVAYIIRSHVKDHYIFHSEGLCPGQPVPGVWLVGRDPKNNLEALEDFEKAAGARGLSTESILIPRQSETSSPGSA
B2: S308.5 N01 (designed binder)
chain: ASDEEIQDVSGTWYLKAMTVDYRCPRAYYHSVTPMTLTTLEGGNLEAKFTAHRAGRWQKYKLVLEKTDEPGKYTASGGRHVAYIIRSHVKDHYIFHSEGLCPGQPVPGVWLVGRDPKNNLEALEDFEKAAGARGLSTESILIPRQSETSSPGSA
B3: SEQ ID NO 5 (designed binder)
chain: ASDEEIQDVSGTWYLKAMTVDLRCPRAYYWSVTPMTLTTLEGGNLEAKFTALRIGRWQSYKLVLEKTDEPGKYTASGGRHVAYIIRSHVKDHYIFHSEGLCPGQPVPGVWLVGRDPKNNLEALEDFEKAAGARGLSTESILIPRQSETSSPGSA
B4: SEQ ID NO 3 (designed binder)
chain: ASDEEIQDVSGTWYLKAMTVDSRCPRAYYESVTPMTLTTLEGGNLEAKLTLQRKGRWQEMKDVLEKTDEPGKYTASGGRHVAYIIRSHVKDHYIFHSEGLCPGQPVPGVWLVGRDPKNNLEALEDFEKAAGARGLSTESILIPRQSETSSPGSA
B5: S308.3O10 (designed binder)
chain: ASDEEIQDVSGTWYLKAMTVDKRCPRAYYRSVTPMTLTTLEGGNLEAKFTAKRNGRWQPYKLVLEKTDEPGKYTASGGRHVAYIIRSHVKDHYIFHSEGLCPGQPVPGVWLVGRDPKNNLEALEDFEKAAGARGLSTESILIPRQSETSSPGSA
notes: also called S308.3 010
B6: S308.5 L04 (designed binder)
chain: ASDEEIQDVSGTWYLKAMTVDSRCPRAYYVSVTPMTLTTLEGGNLEAKFTAARIGRWQSYKLVLEKTDEPGKYTASGGRHVAYIIRSHVKDHYIFHSEGLCPGQPVPGVWLVGRDPKNNLEALEDFEKAAGARGLSTESILIPRQSETSSPGSA
B7: S308.5 N20 (designed binder)
chain: ASDEEIQDVSGTWYLKAMTVDERCPRAHYGSVTPMTLTTLEGGNLEAKFTAMRLGRWQKYKLVLEKTDEPGKYTASGGRHVAYIIRSHVKDHYIFHSEGLCPGQPVPGVWLVGRDPKNNLEALEDFEKAAGARGLSTESILIPRQSETSSPGSA
B8: S308.5 F08 (designed binder)
chain: ASDEEIQDVSGTWYLKAMTVDSRCPRAVYNSVTPMTLTTLEGGNLEAKFTAQRKGRWQKYKLVLEKTDEPGKYTASGGRHVAYIIRSHVKDHYIFHSEGLCPGQPVPGVWLVGRDPKNNLEALEDFEKAAGARGLSTESILIPRQSETSSPGSA
B9: S191.4-B24 (designed binder)
chain: ASDEEIQDVSGTWYLKAMTVDSRCPRAYYSSVTPMTLTTLEGGNLEAKFTAQRSGRWQEYKLVLEKTDEPGKYTASGGRHVAYIIRSHVKDHYIFHSEGLCPGQPVPGVWLVGRDPKNNLEALEDFEKAAGARGLSTESILIPRQSETSSPGSA
B10: S308.5 L20 (designed binder)
chain: ASDEEIQDVSGTWYLKAMTVDNRCPRAKYDSVTPMTLTTLEGGNLEAKFTAHRRGRWQQYKLVLEKTDEPGKYTASGGRHVAYIIRSHVKDHYIFHSEGLCPGQPVPGVWLVGRDPKNNLEALEDFEKAAGARGLSTESILIPRQSETSSPGSA

Experiments:
[1] = molecular target: T1, IL-4 receptor alpha on TF-1 cells; experiment: cell-based or functional assay
[2] = molecular target: T2, IL-4 receptor alpha-Fc (R&D Systems); experiment: Biacore (SPR): about 400 RU IL-4 receptor alpha-Fc captured on a CM-5 chip through an anti-human-Fc antibody, mutein injected at a single concentration of 25 nM, 1:1 Langmuir fit
Method: FIG. 4 depicts IC50 values from FIG. 3 and results of Biacore® measurements of the muteins of human tear lipocalin with affinity for IL-4 receptor alpha. Approximately 400 RU of IL-4 receptor alpha-Fc was captured on a CM-5 chip, which had previously been coated with an anti human-Fc monoclonal antibody. Subsequently, mutein in a single concentration of 25 nM was passed over the flowcell and changes in resonance units recorded. Reference signals from a flow cell that was equally treated apart from not having any IL-4 receptor alpha-Fc was subtracted and the resulting data fitted to a 1:1 Langmuir model using the BIAevaluation software. Due to the slow dissociation kinetics of the double referencing was used by subtracting the signals from a flow cell that was equally treated apart from not having any IL-4 receptor alpha-Fc and subtracting the signal from an experiment where only sample buffer was injected. The resulting data was fitted to a 1:1 Langmuir model with mass-transport limitation using the BIAevaluation software.
Affinity measurements were performed essentially as described in Example 9 of WO 2006/56464 with the modifications that approximately 400 RU of IL-4 receptor alpha-Fc (R&D Systems) was immobilized (instead of 2000 RU of human CTLA-4 or murine CTLA-4-Fc used as target in WO 2006/56464) and 100 μl of mutein was injected at a concentration of 25 nM (instead of 40 μl sample purified lipocalin muteins at concentrations of 5-0.3 μM as used in WO 2006/56464).

[3] = molecular target: T3, IL-4 receptor alpha; experiment: told in words in the legend of FIGS. 2A-2F; Biacore data in FIG. 4
[4] = molecular target: T1, IL-4 receptor alpha on TF-1 cells; experiment: cell-based or functional assay; remark: listed apart in the source

Binder | IC50, IL-4-induced TF-1 cell proliferation (3H-thymidine incorporation) [1] | IC50, IL-13-induced TF-1 cell proliferation (3H-thymidine incorporation) [1] | Kd [2] | binding result [3] | IC50 (read off the curve), TF-1 cell proliferation, panel A (IL-4 by the legend paragraph 166) [4]
B1 | 3.6 nM | 14.8 nM | 0.023 nM |  | 
B2 | 4.4 nM | 17.7 nM | 0.0241 nM |  | 
B3 |  |  |  | binds | 
B4 |  |  |  | binds | 
B5 | 7.5 nM | 15.1 nM | 0.00132 nM |  | ~20 nM
B6 | 5.7 nM | 22.9 nM | 0.0724 nM |  | ~20 nM
B7 | 5.9 nM | 27.6 nM | 0.0348 nM |  | ~20 nM
B8 | 3.8 nM | 7.4 nM | 0.0201 nM |  | ~7 nM
B9 | 9.1 nM | 35.9 nM | 0.11 nM |  | 
B10 | 5.3 nM | 14.4 nM | 0.0249 nM |  | 
